In the supplement of paper PMC12217912:
This is one part of the list. Sequences were assembled here from the parent chain. Values near 0.05 are background.

B1: TEV protease; numbered along this chain (parent)
chain: MGESLFKGPRDYNPISSSICHLTNESDGHTTSLYGIGFGPFIITNKHLFRRNNGTLVVQSLHGVFKVKDTTTLQQHLVDGRDMIIIRMPKDFPPFPQKLKFREPQREERICLVTTNFQTKSMSSMVSDTSCTFPSGDGIFWKHWIQTKDGQCGSPLVSTRDGFIVGIHSASNFTNTNNYFTSVPKNFMELLTNQEAQQWVSGWRLNADSVLWGGHKVFMVKPEEPFQPVKEATQL

Variants of: B1
Test: raw area under fraction-flipped curve 0-4 h after induction (AUC4h, not background-subtracted), DNA-recorder readout of cleavage of the substrate (dimensionless); higher = more cleavage of the substrate by the protease variant
Details: temperature: 34 °C; time window: 0-4 h after rhamnose induction
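Further: Bxb1 expression induced with 0.2% (w/v) L-rhamnose at OD600 near 0.5, cultures sampled hourly, flipped fraction per protease–substrate barcode pair counted by paired-end Illumina sequencing.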

| Variant | area with substrate ENLCFQS | area with substrate ENLEFQS | area with substrate ENLHFQS | area with substrate ENLKFQS | area with substrate ENLNFQS | area with substrate ENLPFQS | area with substrate ENLQFQS | area with substrate ENLSFQS | area with substrate ENLVFQS | area with substrate ENLFFQS | area with substrate ENLRFQS | area with substrate ENLDFQS | area with substrate ENLIFQS | area with substrate ENLMFQS | area with substrate ENLWFQS | area with substrate ENLGFQS | area with substrate ENLLFQS | area with substrate ENLTFQS |
| --- | --- | --- | --- | --- | --- | --- | --- | --- | --- | --- | --- | --- | --- | --- | --- | --- | --- | --- |
| MGESLFKGPRDYNPISSSICHLTNESDGHTTSLYGIGFGPFIITNKHLFRRNNGTLVVQSLHGVFKVKDTTTLQQHLVDGRDMIIIRMPKDFPPFPQKLKFREPQREERICLVTTNFQTKSMSSMVSDTSCEFPSGDGIFWKHWIQTKDGQCGSPLVSTRDGFIVGIHSASNFTNTNNYFTSVPKNFMELLTNQEAQQWVSGWRLNADSVLWGGHKVFMVKPEEPFQPVKEATQL [T132E] | 0.0731 | 0.0534 | 0.0733 | 0.0714 | 0.0646 | 0.0515 | 0.0455 | 0.0664 | 0.0495 |  |  |  |  |  |  |  |  |  |
| MGESLFKGPRDYNPISSSICHLTNESDGHTTSLYGIGFGPFIITNKHLFRRNNGTLVVQSLHGVFKVKDTTTLQQHLVDGRDMIIIRMPGDFPPFPQKLKFREPQREERICLVTTNFQTKSMSSMVSDTSCTFPSGDGIFWKHWIQTKDGQCGSPLVSTRDGFIVGIHSASNFTNTNNYFTSVPKNFMELLTNQEAQQWVSGWRLNADSVLWGGHKVFMVKPEEPFQPVKEATQL [K90G] | 0.073 | 0.0657 |  | 0.0844 | 0.0675 |  | 0.0757 |  | 0.0843 | 0.0802 | 0.0798 |  |  |  |  |  |  |  |
| MGESLFKGPRDYNPISSSICHLTNESDGHTTSLYGIGFGPFIITNKHLFRRNNGTLVVQSLHGVFKVKDTTTLQQHLVDGRDMIIIRMPKDFPPFPQKLKFREPQREERIDLVTTNFQTKSMSSMVSDTSCTFPSGDGIFWKHWIQTKDGQCGSPLVSTRDGFIVGIHSASNFTNTNNYFTSVPKNFMELLTNQEAQQWVSGWRLNADSVLWGGHKVFMVKPEEPFQPVKEATQL [C111D] | 0.0578 |  | 0.0593 | 0.0709 | 0.0715 | 0.0555 |  | 0.0591 | 0.0525 | 0.0601 | 0.0512 | 0.0655 | 0.0635 | 0.0761 | 0.0444 |  |  |  |
| MGESLFKGPRDYNPISSSICHLTNESDGHTTSLYGIGFGPFIITNKHLFRRNNGTLVVQSLHGVFKVKDTTTLQQHLVDGRDMIIIRMPKDFPPFPQKLKFREPQREERICLVTTNFQTKSMSSMVSDTSCTFPSGVGIFWKHWIQTKDGQCGSPLVSTRDGFIVGIHSASNFTNTNNYFTSVPKNFMELLTNQEAQQWVSGWRLNADSVLWGGHKVFMVKPEEPFQPVKEATQL [D137V] | 0.089 |  | 0.0703 |  |  | 0.0749 |  | 0.0608 |  | 0.0907 |  |  | 0.111 |  |  |  |  |  |
| MGESLFKGPRDYNPISSSICHLTNESDGHTTSLYGIGFGPFIITNKHLFRRNNGTLVVQSLHGVFKVKDTTTLQQHLVDGRDMIIIRMPKDFPPFPQKLKFREPQREERICLVTTNFQTKSMSSMVSDTSCTMPSGDGIFWKHWIQTKDGQCGSPLVSTRDGFIVGIHSASNFTNTNNYFTSVPKNFMELLTNQEAQQWVSGWRLNADSVLWGGHKVFMVKPEEPFQPVKEATQL [F133M] | 0.0735 | 0.0625 | 0.062 | 0.0888 | 0.0706 | 0.061 | 0.0737 | 0.0792 | 0.0806 | 0.0989 | 0.0597 | 0.0704 | 0.0796 | 0.076 |  | 0.0745 | 0.062 |  |
| MGESLFKGPRDYNPISSSICHLTNESDGHTTSLYGIGFGPFIITNKHLFRRNNGTLVVQSLHGVFKVKDTTTLQQHLVDGRDMIIIRMPKDFPPFPQKLKFREPQREERICLVTTNFQTKSMSSMVSDTSCTPPSGDGIFWKHWIQTKDGQCGSPLVSTRDGFIVGIHSASNFTNTNNYFTSVPKNFMELLTNQEAQQWVSGWRLNADSVLWGGHKVFMVKPEEPFQPVKEATQL [F133P] | 0.0221 | 0.0567 | 0.0677 |  | 0.0556 | 0.0467 | 0.0573 | 0.0506 | 0.0659 | 0.0661 | 0.0566 | 0.0432 |  |  |  |  |  |  |
| MGESLFKGPRDYNPISSSICHLTNESDGHTTSLYGIGFGPFIITNKHLFRRNNGTLVVQSLHGVFKVKDTTTLQQHLVDGRDMIIIRMPKDFPPFPQKLKFREPQREERICLVTTNFQTKSMSSMVSDTSMTFPSGDGIFWKHWIQTKDGQCGSPLVSTRDGFIVGIHSASNFTNTNNYFTSVPKNFMELLTNQEAQQWVSGWRLNADSVLWGGHKVFMVKPEEPFQPVKEATQL [C131M] | 0.0601 | 0.068 |  |  | 0.0573 | 0.0671 | 0.0608 |  |  | 0.0709 |  | 0.051 | 0.058 |  |  | 0.0692 |  |  |
| MGESLFKGPRDYNPISSSICHLTNESDGHTTSLYGIGFGPFIITNKHLFRRNNGTLVVQSLHGVFKVKDTTTLQQDLVDGRDMIIIRMPKDFPPFPQKLKFREPQREERICLVTTNFQTKSMSSMVSDTSCTFPSGDGIFWKHWIQTKDGQCGSPLVSTRDGFIVGIHSASNFTNTNNYFTSVPKNFMELLTNQEAQQWVSGWRLNADSVLWGGHKVFMVKPEEPFQPVKEATQL [H76D] | 0.0548 | 0.0564 | 0.0614 | 0.0648 | 0.079 |  | 0.0611 |  | 0.0912 | 0.0582 |  | 0.0668 |  |  |  |  | 0.0578 |  |
| MGESLFKGPRDYNPISSSICHLTNESDGHTTSLYGIGFGPFIITNKHLFRRNNGTLVVQSLHGVFKVKDTTTLQQHLVDGRDMIIIRMPKDFPPFPQKLKFREPQREERICLVTTNFQTKSMSSMVSDTSCTFPSGDGIFWWHWIQTKDGQCGSPLVSTRDGFIVGIHSASNFTNTNNYFTSVPKNFMELLTNQEAQQWVSGWRLNADSVLWGGHKVFMVKPEEPFQPVKEATQL [K142W] | 0.0503 | 0.0614 |  | 0.0291 |  | 0.0546 | 0.049 | 0.065 | 0.0377 | 0.114 |  | 0.0736 | 0.077 |  | 0.0611 |  |  | 0.0577 |
